Results as given in PubChem BioAssay (NCI).
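In this assay, cells in 96-well plates receive the compound at five concentrations for 48 hours. Endpoints are linearly interpolated between the surrounding concentrations. GI50 = concentration required for 50% inhibition of growth. Definition used: TGI = concentration required for complete inhibition of growth.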

The compounds below were run on NCI-H322M lung (assay: inhibition of tumour cell growth, NCI panel, 48 h).

SMILES	GI50	TGI
CC1=C(CN(O)C(N)=O)C2=C(C)C3(CC3)[C@](C)(O)C(=O)C2=C1	1980 nM	7930 nM
Cn1ccnc1C(=O)/C=C/c1ccc(CNC(=O)c2ccc(Cl)cc2)cc1	1990 nM	4000 nM
C=C(C)C(=O)O[C@H]1C[C@@]2(C)OC(=CC2=O)/C(CO)=C\[C@H]2OC(=O)C(=C)[C@H]12	1510 nM	> 3330 nM
NC(=S)n1c(=O)n(-c2cccc(C(F)(F)F)c2)c(=O)c2cc(-c3ccc(F)cc3F)ccc21	2120 nM	8890 nM
CCN1C(=O)N(CC)C2SC(N/N=C/c3ccccc3)=NC21 (configuration not stated)	1060 nM	> 100000 nM
O=C1c2c(c3c4cc(O)ccc4oc3c3[nH]c4ccccc4c23)C(=O)N1O	1140 nM	6100 nM
